The text below walks through data of PubChem BioAssay AID488969 (Vanderbilt High Throughput Screening Facility, 2010).

SMILES strings stand for the structures. Over roughly 110,000 compounds, “z-score” has its median near -0.1; the highest 2% begin near 2. The list shows a part of the results. Active and inactive are the calls of the source.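 How the source made its calls: active means z-score in the third read window above 3 or below -3; inactive means the rest.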

The target in this experiment is Metabotropic glutamate receptor 8 (Rattus norvegicus) (UniProt P70579). The experiment in a line: rat mGluR8 modulators via GIRK flux, primary screen, cell-based, thallium flux, HTS (AID 488969). As to conditions: HEK293 rat mGluR8, GIRK (G protein-gated inwardly rectifying potassium channel) thallium flux, FluoZin2; at 10 µM; stronger effect = higher value; submaximal glutamate (EC20) added with thallium.
Chain of UniProt P70579 (P70579 whole entry, looked up): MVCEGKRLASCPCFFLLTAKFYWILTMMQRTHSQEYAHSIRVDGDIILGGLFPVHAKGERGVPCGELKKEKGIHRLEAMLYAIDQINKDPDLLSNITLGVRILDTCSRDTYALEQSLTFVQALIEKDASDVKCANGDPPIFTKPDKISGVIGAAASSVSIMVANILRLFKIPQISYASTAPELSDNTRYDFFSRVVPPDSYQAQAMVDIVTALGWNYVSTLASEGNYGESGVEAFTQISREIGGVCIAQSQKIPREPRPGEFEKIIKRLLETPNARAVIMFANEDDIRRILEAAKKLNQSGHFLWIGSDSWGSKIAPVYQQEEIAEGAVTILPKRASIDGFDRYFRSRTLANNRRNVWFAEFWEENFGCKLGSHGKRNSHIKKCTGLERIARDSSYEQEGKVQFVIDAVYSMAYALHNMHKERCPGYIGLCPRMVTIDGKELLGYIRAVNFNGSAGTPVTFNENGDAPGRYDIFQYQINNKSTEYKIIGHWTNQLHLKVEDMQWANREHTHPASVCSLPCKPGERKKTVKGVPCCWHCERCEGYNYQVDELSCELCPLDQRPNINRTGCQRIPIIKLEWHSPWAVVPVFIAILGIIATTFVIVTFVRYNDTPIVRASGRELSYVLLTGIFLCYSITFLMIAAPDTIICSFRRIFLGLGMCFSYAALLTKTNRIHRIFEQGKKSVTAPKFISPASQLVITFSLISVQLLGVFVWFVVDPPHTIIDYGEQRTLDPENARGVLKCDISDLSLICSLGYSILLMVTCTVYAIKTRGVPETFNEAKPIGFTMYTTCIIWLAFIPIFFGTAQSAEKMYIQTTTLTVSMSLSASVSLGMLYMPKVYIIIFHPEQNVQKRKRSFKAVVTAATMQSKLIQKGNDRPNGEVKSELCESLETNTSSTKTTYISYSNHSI
Take `CCNC(=O)O/N=C(\C)c1sc(-c2ccccc2)nc1C`: the z-score was -0.481.
Compound `CCOC(=O)c1c(C)[nH]c(C(=O)CSc2nc3ccccc3o2)c1C` came in with a z-score of 0.133.
The figure for `COCCNC(=S)N/N=C/c1c(C)[nH]c2ccccc12` is -0.305; for `CCN1C(=O)/C(=C\N(C(C)=O)c2ccccc2)OC1=S` it is 0.215; for `CCN(CCCNC(=O)CCc1nc(-c2ccc(C)cc2)no1)c1cccc(C)c1` it is -0.28.
In the case of `CCC(=O)N1CCc2cc(Br)cc(S(=O)(=O)CCC(=O)NCC3CCCO3)c21` (stereo unspecified), the z-score was -0.168.
For the compound `COC(CNC(=O)c1ccc(N2CCCC2=O)cc1)OC`, the z-score was -0.0338.
The result for `Cc1ccc(S(=O)(=O)N2CCC(CN3C(=O)c4cccc5cccc(c45)C3=O)CC2)cc1` reads -0.319; that for `Cc1ccc(-c2noc(CN(C(=O)c3cccs3)C(C)C)n2)cc1`, -1.1; that for `O=C(COC(=O)Cc1ccccc1[N+](=O)[O-])NCc1ccc(F)cc1`, -0.357.
In turn, `O=C(COC(=O)C1CC1)NCc1ccccc1Cl` returned a z-score of 0.144.
On to `COc1ccc(OCCCCOc2ccccc2Cl)cc1`, for which the z-score is -0.0386.
The result for `CCC(Sc1nc2ccccc2s1)C(=O)Nc1cc(C)on1` (stereo unspecified) reads -0.499.
On to `Cc1cc(NC(=O)c2ccc(S(=O)(=O)N(C)C)cc2)no1`, for which the z-score turned out to be 0.501.
The result for `CC(=O)c1c(O)cc(C(C)C)n(-c2ccccc2)c1=O` reads 0.1; that for `COc1cccc(/C=N/NC(=O)c2ccc(=O)n(C)c2)c1OC`, -0.164.
The result for `COc1ccc(S(=O)(=O)N2CCOCC2)cc1NC(=O)COC(=O)C1COc2ccccc2O1` (stereo unspecified) reads -0.525; that for `O=C(Nn1c(Cc2cccs2)nc2ccccc2c1=O)c1ccc(F)c(F)c1`, 0.104.
For the compound `Cc1cc(-c2nnco2)c(C)n1-c1ccc(F)cc1`, the z-score was -0.929.
In the case of `CCCN(Cc1cc2cccc(C)c2[nH]c1=O)S(C)(=O)=O`, the z-score worked out at 0.108.
The figure for `CCCCN(CCCC)C(=O)c1nsnc1-c1ccccc1O` is -0.195; for `CCSc1nnc(NC(=O)Cc2ccccc2OC)s1` it is 0.186; for `COc1cccc(C2(c3cccc(OC)c3)CC2C(=O)Nc2ccc(F)cc2)c1` (stereo unspecified) it is -0.642.
The figure for `COc1ccc(-c2nc3c(c(=O)[nH]c(=O)n3Cc3ccccc3)n2Cc2ccccc2)cc1` is -0.593; for `C=CCc1cc(C)ccc1OCCOCCn1ccnc1` it is -0.0974; for `Cc1ccc(S(=O)(=O)N2CCN(CC(=O)NC3CCCc4ccccc43)CC2)cc1C` (stereo unspecified) it is -0.462.
As to `COc1ccc(C2CC(=O)c3cnc(NC(=O)c4ccccc4)nc3C2)c(OC)c1` (stereo unspecified), the z-score is -0.297.
As to `COc1nc(N/N=C/c2ccccc2F)nc(N2CCCCC2)n1`, the z-score is -0.07.
For the compound `Nc1c(C(=O)NC2CCCC2)c2nc3ccccc3nc2n1N`, the z-score was -0.553.
The figure for `Cc1cc(C)nc(Nc2n[nH]c(COc3ccc(Cl)cc3)n2)n1` is 0.163; for `CC(C)Cn1c(-c2ccccc2)nc2ccccc2c1=O` it is 0.193; for `CCOC(=O)C1C(=O)C=C(c2cccs2)CC1c1ccccc1` (stereo unspecified) it is -0.493.
On to `COCC(C)NC(=O)COc1ccc(Cl)cc1Cl` (stereo unspecified), for which the z-score amounted to 0.534.
Regarding `CP(C)(=O)CCP(=O)(c1ccccc1)c1ccccc1`, the z-score was -0.814.
The result for `O=C(C1CCCCN1S(=O)(=O)c1ccccc1)N1CCCCC1` (stereo unspecified) reads 1.27.
The figure for `Cn1c(Cc2cccc3ccccc23)nnc1SCc1ccc([N+](=O)[O-])cc1` is 0.888; for `CCN(c1cccc(C)c1)C(C(=O)Nc1ccc(OC)cc1)c1cc2c(cc1[N+](=O)[O-])OCO2` (stereo unspecified) it is -0.152; for `COc1ccc(N2C(=O)CCC2(C#N)c2ccc(OC)cc2)cc1` (stereo unspecified) it is 0.0527.
The result for `CSc1ccc(/C=N/NC(=O)CN2CCN(Cc3ccccc3Cl)CC2)cc1` reads -0.193; that for `COc1ccc(S(=O)(=O)N[C@H](C(=O)N2CC[C@@]3(O)CCCC[C@H]3C2)c2ccccc2)cc1`, -1.15.
Consider `CC(C)Cn1cc(C(=O)N2CCN(c3ccccn3)CC2)c2c3ccccc3n(C)c2c1=O`, for which the z-score is -2.43.
The figure for `COc1ccc(Br)cc1C(=O)Nc1cccc(C)c1` is -0.126; for `CN(C(=O)C1CCOC1)c1nnc(-c2ccccn2)s1` (stereo unspecified) it is 0.442.
The figure for `CCOc1ccc(OCC)c(-c2c(=O)n(OCc3ccc(C(C)(C)C)cc3)c3ccccc3[n+]2[O-])c1` is -0.137; for `CCCCC(O)(C(NC=O)C(=O)OC)C(F)(F)F` (stereo unspecified) it is -0.227; for `COc1ccc(OCc2ccc(C(=O)NN)cc2)cc1` it is 0.222.
For `CCOc1ccccc1NC(=O)C(=O)NCC1CCCN1CC` (stereo unspecified), the z-score is -0.105.
In the case of `C=C(C)c1cccc(C(C)(C)NC(=O)NC2CCCC2)c1`, the z-score was -0.875.
Turning to `COC(=O)C1=C(C)OC(N)=C(C#N)C1c1cc(C)sc1C` (stereo unspecified), the z-score is -0.593.
The result for `CCc1cccc(OCCCCNCCO)c1` reads 0.564; that for `COCCCn1c(Cc2csc(Nc3cccc(Cl)c3)n2)nnc1SCC(=O)OC1CCCCC1`, -0.0982.
The figure for `Cc1ccc(NC(=O)Cc2noc3ccccc23)cc1` is -0.133; for `O=C(Cc1ccc(F)cc1)N/N=C/c1ccncc1` it is 0.586; for `CCC(=O)Nc1ccc(F)c(Cl)c1` it is -0.242.
On to `N#Cc1c(N2C(=O)C3C4C=CC(C4)C3C2=O)sc2c1CCC2` (stereo unspecified), for which the z-score is 0.0284.
For the compound `CCOc1c(OC(C)=O)ccc(/C=C2\N=C(SCC)SC2=O)c1[N+](=O)[O-]`, the z-score was -0.451.
In the case of `CCN(CC)S(=O)(=O)c1ccc(N2CCCC2)c(C(=O)OCC(=O)/C(C#N)=C(\C)N)c1`, the z-score is -2.04.
Take `CC(/C=N/n1c(-c2ccc(Cl)cc2)n[nH]c1=S)=C\c1ccco1`: the z-score was active: 6.09.
Turning to `CNc1ccc(C2(O)C(=O)c3ccccc3C2=O)cc1`, the z-score was -0.306.
For the compound `Cc1cccc(-c2csc(N)c2C(=O)OC(C)C)c1`, the z-score was -0.214.
The figure for `C=C(C)C(=O)Nc1cccc(C(C)=O)c1` is -0.149.
The compound `CNc1nc(C(=O)O)nc(N2CCOCC2)n1` displayed a z-score of 0.0822.
As to `CCCCCNC(=O)C(C)NS(=O)(=O)c1ccc(OC)cc1` (stereo unspecified), the z-score was found to be 0.171.
The result for `O=C(OCCN1C(=O)c2ccccc2C1=O)c1ccco1` reads 0.386; that for `COc1ccccc1CNC(=O)CN1CCC(n2cnc3cc(F)ccc32)CC1`, -0.204; that for `COc1cccc(/C(O)=C/c2nc3ccc(C(=O)NCCc4cccc(C)c4)cc3[nH]c2=O)c1`, -0.284.
For the compound `O=C(NCc1ccccn1)c1cc(-c2ccc(-c3ccccc3)cc2)nc2ccccc12`, the z-score was -0.368.
For the compound `O=C(Nc1ccc2c(c1)OCCO2)c1cncc(Br)c1`, the z-score is -0.0828.
Consider `COc1ccc(NC(=O)CC2C(=O)N(CCc3ccccc3)C(=S)N2Cc2cccnc2)cc1` (stereo unspecified), for which the z-score was -0.24.
The result for `CC(C)C(NC(=O)c1ccccc1)c1nnc(SCC(=O)Nc2nccs2)n1C` (stereo unspecified) reads -0.525.
In the case of `CCc1cc(=O)oc2cc(C)c3c(C)coc3c12`, the z-score was -0.393.
In the case of `COc1cccc(OCCCN2CCN(S(=O)(=O)c3ccc(NC(C)=O)cc3)CC2)c1`, the z-score was -0.199.
In the case of `Cc1cccc(-c2nnc(SCC3CNC(=O)O3)n2-c2ccc(Cl)cc2)c1` (stereo unspecified), the z-score was -0.276.
The figure for `COc1ccc(NS(=O)(=O)c2cccc(Cl)c2)cc1S(=O)(=O)N1CCCCC1` is 0.842; for `COc1ccc2c(C)cc(SCC(=O)Nc3c(C)n(C)n(-c4ccccc4)c3=O)nc2c1` it is -0.212.
The figure for `CCCC(=O)NC(=S)Nc1cccc(NC(=O)c2ccccc2Cl)c1` is -0.103; for `CCOC(=O)c1sc(NC(=O)CN(CC)CC)c(C(=O)OCC)c1C` it is -0.132; for `O=C(/C=C/c1ccco1)NC(=S)Nc1ccc(N2CCOCC2)c(Cl)c1` it is 0.0338.
The result for `CCOc1ccccc1NC(=O)CC(O)(C(F)(F)F)C(F)(F)F` reads 0.305.
For the compound `COc1ccc(-c2c(C#N)c(SCC(=O)Nc3ccccc3)nc3c2CCCC3)cc1`, the z-score is -0.0816.
The figure for `Cc1ccc(-n2c(N)c(C(=O)N3CCOCC3)sc2=S)cc1` is 0.347; for `O=c1cc(N2CCCCC2)c(-c2ccccc2)nn1Cc1ccc(Cl)cc1` it is 0.0175.
The result for `Cc1ccnn1CC(=O)N/N=C/c1ccc2c(c1)OCO2` reads -0.38.
The result for `Cn1c(=O)c2c(-c3cccc(F)c3)c3c(nc2n(C)c1=O)-c1ccccc1C3O` (stereo unspecified) reads -1.52.
With `CCC(CC)NC(=O)CO/N=C/c1ccccc1OC(F)F`, the z-score is -0.0639.
As to `CCOC(=O)N1CCN(C(=O)Nc2ccc(Cl)cc2)CC1`, the z-score was -0.0107.
Regarding `CCOc1ccc(Cn2nnc(C(=O)NCCc3ccc(Cl)cc3)c2N)cc1`, the z-score is -0.226.
For `COc1cc2c(cc1OC)C(c1cc3cc4c(cc3[nH]c1=O)OCO4)N(C(=O)C(C)C)CC2` (stereo unspecified), the z-score was -0.0568.
In the case of `Cc1c(C(=O)O)nn(-c2ccccc2)c(=O)c1C#N`, the z-score turned out to be 0.0941.
For the compound `CC(=O)N1N=C(c2ccccc2)CC1c1cn(C)c2ccccc12` (stereo unspecified), the z-score is -1.54.
The figure for `Cc1ccc(S(=O)(=O)N=S(CC2CC2(Cl)Cl)CC2CC2(Cl)Cl)cc1` (stereo unspecified) is -0.364.
The figure for `O=C(N/N=C/c1cccc(OC(=O)N2CCOCC2)c1)c1cccs1` is -0.0322; for `c1ccc2c(c1)OCC(CNc1ncnc3sccc13)O2` (stereo unspecified) it is -0.346.
The result for `COc1ccc2nc(NC(=O)Cc3cccs3)sc2c1` reads -0.144; that for `Cc1cc(C(C)(C)C)oc1C(=O)N(CC(=O)NC1CCCC1)Cc1ccccc1Cl`, -0.671; that for `CC(C)C(NC(=O)C1CCCCC1)C(=O)NC1CCN(Cc2ccccc2)CC1` (stereo unspecified), 0.129.
As to `O=C(COc1ccc(Br)cc1CO)Nc1ccccc1F`, the z-score was -0.0395.
The figure for `Cc1ccc(NC(=O)C2C3CCCC2C3c2ccccc2)cc1C` (stereo unspecified) is -0.232.
In the case of `COc1ccc(Oc2nnc(C)c3ccccc23)cc1`, the z-score was -0.35.
The result for `CC1CCCN(C(=O)c2ccc(CNc3c(N4CCCCC4)c(=O)c3=O)cc2)C1` (stereo unspecified) reads -0.544.
The figure for `S=c1[nH]nc(-c2ccc3ccccc3n2)n1-c1cc(Cl)cc(Cl)c1` is 2.18; for `O=C1/C(=C\c2cccnc2)Sc2ccccc21` it is -0.757.
As to `COc1ccc(NC(=O)CN(c2ccc(C)cc2)S(=O)(=O)c2c(C)nn(C)c2C)cc1OC`, the z-score was -0.248.
The figure for `FC(F)(F)c1n[nH]c(=S)n1/N=C/c1ccco1` is -0.0482.
The figure for `CC1(C)C(c2ccc(Cl)cc2)=[N+]([O-])C2(CCCC/C2=N\O)N1O` (stereo unspecified) is 0.275; for `CCOC(=O)C1=C(Cc2ccc(C)cc2)C(=O)c2ccccc2C1=O` it is 0.585; for `CN(C)CCCNC(NC(=O)c1cccs1)C(Cl)(Cl)Cl` (stereo unspecified) it is -0.135.
The figure for `Cc1nc2c([nH]1)C1(CCN(Cc3ccccc3)CC1)C(C#N)=C(N)O2` is -1.37.
Consider `CC(C)OCCCN1CN(S(=O)(=O)c2ccc(Cl)cc2)c2nc3ccccc3nc21`, for which the z-score is -0.249.
The figure for `CCOC(=O)c1cccc(S(=O)(=O)N2CCCC2)c1` is -0.19; for `COc1ccc(/C=C/C(=O)c2ccccc2)cc1COc1ccccc1F` it is -0.0309.
